Here are results for 68 compounds from PubChem BioAssay AID1347073 (National Center for Advancing Translational Sciences (NCATS), 2019).

About 200 (0.44%) of roughly 45,000 compounds were called active. Another 7% or so got no clear call; they are omitted. Calls come from the whole dose curve; as a rule, active = well fitted activation curve with a large enough effect; inconclusive = small, poorly fitted or top-dose-only effect; inactive = no such curve, though single readings can be large or run the other way. The list shows a part of the results.

The test is described as follows: qHTS of TDP-43 Inhibitors: NCGC Sytravon Library Screen. Note: 0% is about no effect; nearly all actives have a fitted effect of over 55% in size. As to conditions: yeast TDP-43 toxicity rescue, BacTiter-Glo growth, 24 h; series mostly up to 46.1 µM; growth rescue (activation): at the top concentration. Put shortly:
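TDP-43-expressing yeast, pregrown in raffinose, seeded at OD600 0.02 in galactose medium with compound for 24 hr at 30 deg C. Growth read by BacTiter-Glo luminescence, so rescue of toxicity appears as activation.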
Consider `CCOc1ccc2nc(S(=O)(=O)NC(=O)C3(C)CCN3C(=O)c3cccc(F)c3)sc2c1` (stereo not drawn), for which the “growth rescue (activation)” value was inactive: 7.08%.

In the case of `COc1cc(C=O)cc(Br)c1OCC(N)=O`, the “growth rescue (activation)” value was inactive: 12.6%.

Turning to `CCCC1CCC(c2ccc(C(=O)NN)cc2)CC1` (stereo not drawn), the “growth rescue (activation)” value was inactive: 11.6%.

Consider `C/C(=N\NC(=O)c1cc(-c2ccc(C)s2)[nH]n1)c1ccncc1`, for which the “growth rescue (activation)” value is inactive: 18.7%.

For `CCCc1nnc(SCC(=O)Nc2ccc(Cl)cc2Cl)o1`, the “growth rescue (activation)” value was inactive: 26.5%.

With `CCOC(=O)c1[nH]c2ccc(F)cc2c1NC(=O)CN1CCN(C/C=C/c2ccccc2)CC1`, the “growth rescue (activation)” value is inactive: 25.7%.

As for `Cc1cccc(C(=O)OC(C)CN2C(C)CCCC2C)c1` (stereo not drawn), the “growth rescue (activation)” value is inactive: 6.83%.

Take `Cc1ccc(/C=C/S(=O)(=O)NCCC(=O)NCc2ccccc2F)cc1`: the “growth rescue (activation)” value is inactive: 4.67%.

`COc1ccc2c(/C=N/Nc3ccc(C(=O)O)cc3)c[nH]c2c1`: the “growth rescue (activation)” value was inactive: 1.14%.

`COc1ccccc1NC(=O)c1c(Nc2ccccc2F)sc(C(=O)Nc2cccc(Cl)c2)c1N`: the “growth rescue (activation)” value is inactive: 8.01%.

Regarding `O=C(CN1C(=O)c2ccccc2C1=O)NCC(=O)OCC(=O)c1ccc(Cl)cc1`, the “growth rescue (activation)” value was inactive: 10.3%.

As to `CC(=O)N1N=C(c2ccc(C)cc2)CC1c1ccco1` (stereo not drawn), the “growth rescue (activation)” value was inactive: 16.1%.

With `O=C(N/N=C/c1cn(Cc2ccccc2)c2ccccc12)c1cccnc1`, the “growth rescue (activation)” value is inactive: 38.7%.

Turning to `NC(=O)Nn1c(CCC(=O)O)ccc1-c1ccc(Cl)cc1`, the “growth rescue (activation)” value was inactive: 11.4%.

For `O=C(NC(c1ccccc1)c1ccc2ccccc2n1)C1CCN(Cc2ccc(Oc3ccccc3)cc2)CC1` (stereo not drawn), the “growth rescue (activation)” value was inactive: 8.77%.

As for `COc1cccc(NC(=O)NC2CCCCC2C)c1` (stereo not drawn), the “growth rescue (activation)” value was inactive: 1.73%.

With `O=C(COC(=O)c1ccc2c(c1)C(=O)N(c1cccc3ncccc13)C2=O)c1ccc(Cl)cc1`, the “growth rescue (activation)” value is inactive: -7.48%.

For the compound `COc1ccc(S(=O)(=O)Nc2ccccn2)cc1`, the “growth rescue (activation)” value is inactive: 11%.

On to `Cc1ccccc1NC(=S)/C(=C(\[O-])c1ccc(C)c([N+](=O)[O-])c1)[n+]1ccccc1`, for which the “growth rescue (activation)” value is inactive: 6.75%.

For the compound `CCCCOC(=O)Nc1ccc(N(C)C)cc1`, the “growth rescue (activation)” value is inactive: -4.29%.

For the compound `COc1ccc(NC(=S)NN(C)C(=S)Nc2ccc(OC)cc2)cc1`, the “growth rescue (activation)” value is inactive: 23.2%.

For the compound `Cc1ccc2nc(/C(C#N)=C\c3ccc(Oc4ccc([N+](=O)[O-])cn4)cc3)[nH]c2c1`, the “growth rescue (activation)” value is inactive: -0.0619%.

`O=C(CN(C(=O)CCC(=O)Nc1ccccn1)c1cccc(F)c1)NCc1ccco1`: the “growth rescue (activation)” value is inactive: -1.03%.

In the case of `O=C(CSc1nnc(NC(=O)c2c(F)cccc2F)s1)NCc1ccccc1`, the “growth rescue (activation)” value was inactive: 3.15%.

As to `CC(C)Oc1ccc(C2CC(=O)N(c3ccc(C(=O)O)cc3)C2=O)cc1` (stereo not drawn), the “growth rescue (activation)” value is inactive: -4.64%.

In the case of `CCOC(=O)C1(CCOc2ccccc2)CCN(C(=O)CCSC)CC1`, the “growth rescue (activation)” value was inactive: 11.2%.

For `C=CCn1c(C)c(/C=C/c2cc[n+](C)cc2)c2ccccc21`, the “growth rescue (activation)” value is inactive: -1.83%.

For `COc1ccccc1CNC(=O)CC12CC3CC(CC(Br)(C3)C1)C2`, the “growth rescue (activation)” value is inactive: -2.15%.

For `Cc1ccc(C)c(N2CCN(c3cnn(-c4nc5ccccc5s4)c(=O)c3Cl)CC2)c1`, the “growth rescue (activation)” value is inactive: 7.99%.

`Cc1ccc(/C=C2\SC(=S)N(CCC(=O)NCCCN3CCOCC3)C2=O)cc1`: the “growth rescue (activation)” value is inactive: -8.12%.

With `Cc1cc(C)nc(NC(=O)c2ccc(COc3ccccc3Cl)cc2)c1`, the “growth rescue (activation)” value was inactive: 25%.

For the compound `CCOCCCNc1nc(C)nc2c1nnn2Cc1c(F)cccc1Cl`, the “growth rescue (activation)” value is inactive: 25.5%.

For `CSc1ccccc1OCc1cc(C(=O)NCCn2ccnc2C)no1`, the “growth rescue (activation)” value is inactive: 5.68%.

For `COc1cc(OC)c(NS(=O)(=O)c2cccc(C(=O)OCC(=O)NCC3CCCO3)c2)cc1Cl` (stereo not drawn), the “growth rescue (activation)” value was inactive: 2.62%.

In the case of `CCCC(=O)N1CCCC1(C)C(=O)Nc1ccc2cn[nH]c2c1` (stereo not drawn), the “growth rescue (activation)” value is inactive: -2.02%.

As for `Cc1ccc(-c2nc3ccccc3s2)cc1NC(=S)NC(=O)c1cccc2ccccc12`, the “growth rescue (activation)” value was inactive: 5.63%.

Turning to `Cc1ccc(NS(=O)(=O)c2ccc(CCC(=O)NCc3cccnc3)cc2)cc1`, the “growth rescue (activation)” value is inactive: -4.53%.

Take `Cc1cc(C)cc(N(C(=O)c2sc(C)nc2C)C(C(=O)NC(C)(C)C)c2ccncc2)c1` (stereo not drawn): the “growth rescue (activation)” value is inactive: -8.52%.

On to `Cc1ccc(N(C(=O)CNC(=O)c2ccco2)C(C(=O)NC2CCCCC2)c2cccnc2)c(C)c1` (stereo not drawn), for which the “growth rescue (activation)” value is inactive: -35.3%.

With `Cc1cc(C)c2c(N)c(C(=O)NNC(=O)c3ccccc3)sc2n1`, the “growth rescue (activation)” value was inactive: 18.8%.

Take `CC1(C(=O)Nc2ccc3c(c2)OCO3)CCN1Cc1ccccc1OC(F)F` (stereo not drawn): the “growth rescue (activation)” value is inactive: 17.2%.

`O=C(CN1CCCC1)Nc1ccc(Cl)cc1C(F)(F)F`: the “growth rescue (activation)” value is inactive: -9.9%.

Turning to `Cc1cc(-c2nn(-c3ccccc3F)cc2CN2CCN(c3ccncc3)CC2)c(C)s1`, the “growth rescue (activation)” value was inactive: 4.63%.

Consider `Cc1ccc(/C=N/n2c(-c3cccc(Cl)c3)n[nH]c2=S)o1`, for which the “growth rescue (activation)” value is inactive: 7.23%.

Take `COC(=O)c1ccc(C(=S)N2CCCCC2)cc1`: the “growth rescue (activation)” value is inactive: 18.2%.

Take `Cc1nc(C(F)(F)F)nc(Nc2ccc(N=Nc3ccccc3)cc2)c1C#N`: the “growth rescue (activation)” value was inactive: 11%.

On to `O=[N+]([O-])c1ccc(Cl)cc1CN1CCCCCC1`, for which the “growth rescue (activation)” value was inactive: -7.92%.

With `COCc1ccc(C(=O)N2CCCC(C(=O)c3ccc(SC)cc3)C2)o1` (stereo not drawn), the “growth rescue (activation)” value was inactive: 11.3%.

Take `COc1ccc(OC)c(S(=O)(=O)n2cnc3ccccc32)c1`: the “growth rescue (activation)” value is inactive: -5.26%.

In the case of `CC(C)(CO)Nc1ccc([N+](=O)[O-])cc1[N+](=O)[O-]`, the “growth rescue (activation)” value is inactive: 3.91%.

Consider `O=[N+]([O-])c1ccc(N2CCN(c3ccc(F)cc3)CC2)cn1`, for which the “growth rescue (activation)” value is inactive: 37.7%.

For the compound `O=C(c1cc2cc(Br)ccc2[nH]1)N1CCc2ccccc21`, the “growth rescue (activation)” value is inactive: 24.3%.

As to `N#Cc1cccc2cnccc12`, the “growth rescue (activation)” value is inactive: 11.7%.

As for `C/C=C/c1ccc(OCCCCOc2ccccc2F)c(OC)c1`, the “growth rescue (activation)” value is inactive: 14.5%.

For the compound `Cc1ccc(Cn2c3ccccc3c3cnn(CC(=O)Nc4cc(Cl)ccc4C)c(=O)c32)cc1`, the “growth rescue (activation)” value is inactive: 7.37%.

For the compound `O=C(/C=C\NCC(=O)c1ccccc1)c1ccc2ccccc2c1`, the “growth rescue (activation)” value was inactive: -6.39%.

With `CCc1nn(CCCC(=O)NCc2ccc(OC(C)C)cc2)c(=O)c2cc3occc3n12`, the “growth rescue (activation)” value is inactive: 6.67%.

On to `C=C(C)COc1ccc(-c2[nH]ncc2-c2ccccc2)c(O)c1`, for which the “growth rescue (activation)” value is inactive: 3.48%.

Consider `CCCC(=O)c1c(NCCO)cc(C)oc1=O`, for which the “growth rescue (activation)” value was inactive: -18.7%.

Consider `COc1ccc(CN(C)CC(=O)Nc2ccccc2C(F)(F)F)cc1`, for which the “growth rescue (activation)” value is inactive: 5.73%.

For `COc1ccc2[nH]c(=O)c(CN(CC3CCCO3)S(=O)(=O)c3ccccc3F)cc2c1` (stereo not drawn), the “growth rescue (activation)” value was inactive: -6.81%.

As to `CC(C(=O)NC1C(=O)N2C(C(=O)O)=C(CSc3nnnn3C)CSC12)n1cc(Cl)cn1` (stereo not drawn), the “growth rescue (activation)” value was inactive: -4.54%.

In the case of `COc1ccc(/C=C(/NC(=O)c2ccccc2)C(=O)NCC2CCCO2)cc1` (stereo not drawn), the “growth rescue (activation)” value is inactive: -0.868%.

For the compound `Cc1cc(NC(=O)CN2CCCC(C)C2)n(-c2nc3ccccc3s2)n1` (stereo not drawn), the “growth rescue (activation)” value is inactive: 26.3%.

For `O=C1CCCC2=C1C(c1ccc(O)c(Br)c1)C1=C(CCCC1=O)N2c1ccccc1`, the “growth rescue (activation)” value is inactive: -6.39%.

With `CCc1nc(SCC(=O)Nc2nnc(C(C)C)s2)n[nH]1`, the “growth rescue (activation)” value is inactive: 4.81%.

Turning to `Cc1ccn2c(C(=O)N/N=C\c3ccc4c(c3)OCO4)c(C)nc2c1`, the “growth rescue (activation)” value is inactive: 15.6%.

For `O=C(COC(=O)c1c[nH]c2ccccc12)Nc1ccccc1`, the “growth rescue (activation)” value was inactive: 8.28%.
